# Laboratory results taken from the supplement of paper PMC9446081.
# Among all 39,000 compounds or so, about 220 (0.56%) showed activity. Some of the results follow.
# System: Escherichia coli K-12 BW25113
# Assay: relative growth (OD600 normalised to plate interquartile mean) (fraction); higher = less growth inhibition, active = 0.2 or less
# Conditions: 50 µM; LB; incubation time: overnight (16-24 h)
# 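Note: static incubation at 37 °C against the wild-type strain, values averaged over two biological replicates.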
row,Structure (SMILES),relative growth
1,C[C@H]1CN([C@@H](C)CO)C(=O)Cc2cc(NC(=O)Nc3cccc4ccccc34)ccc2O[C@@H]1CN(C)Cc1ccncc1,inactive: 0.996
2,C[C@@H]1CCCCO[C@H](CN(C)CC2CCCCC2)[C@H](C)CN([C@@H](C)CO)C(=O)c2cc(NC(=O)CCC(F)(F)F)ccc2O1,inactive: 0.998
3,COc1ccccc1C(=O)Nc1ccc2c(c1)C(=O)N(C)[C@H]1CC[C@@H](CC(=O)NCCc3ccncc3)O[C@@H]1CO2,inactive: 0.979
4,O=C(C[C@@H]1CC[C@H]2[C@@H](COC[C@H](O)CN2Cc2cc(F)ccc2F)O1)N[C@@H]1CCN(Cc2ccccc2)C1,inactive: 0.989
5,Cc1ccc(S(=O)(=O)Nc2ccc3c(c2)C(=O)N([C@@H](C)CO)C[C@H](C)[C@@H](CN(C)Cc2ccccc2)OCCCC[C@H](C)O3)cc1,inactive: 0.954
6,C[C@@H]1CN([C@@H](C)CO)S(=O)(=O)c2ccc(C3=CCCCC3)cc2O[C@H]1CN(C)S(=O)(=O)c1cn(C)cn1,inactive: 1.01
7,COc1ccc(NC(=O)Nc2ccc3c(c2)C(=O)N([C@@H](C)CO)C[C@H](C)[C@H](CN(C)Cc2ccc(-c4ccccc4)cc2)O3)cc1,inactive: 1.04
8,C[C@@H]1CCCCO[C@@H](CN(C)Cc2ccccc2)[C@H](C)CN([C@H](C)CO)C(=O)c2cc(NS(=O)(=O)c3cccs3)ccc2O1,inactive: 0.983
9,CC(C)CC#Cc1ccc2c(c1)O[C@@H](CN(C)S(=O)(=O)c1cccc(F)c1)[C@H](C)CN([C@H](C)CO)S2(=O)=O,inactive: 0.999
10,C[C@H](CO)N1C[C@H](C)[C@H](CN(C)S(=O)(=O)c2cn(C)cn2)Oc2ccc(NC(=O)C3CC3)cc2CC1=O,inactive: 1.01
11,C[C@H](CO)N1C[C@H](C)[C@@H](CN(C)Cc2ccc(C(F)(F)F)cc2)Oc2c(NC(=O)Nc3ccc4c(c3)OCO4)cccc2C1=O,inactive: 0.841
12,C[C@@H]1CN([C@@H](C)CO)C(=O)Cc2cc(NC(=O)CCC(F)(F)F)ccc2O[C@H]1CN(C)C(=O)Nc1cccc2ccccc12,inactive: 1.02
13,Cc1noc(C)c1S(=O)(=O)Nc1ccc2c(c1)CC(=O)N([C@H](C)CO)C[C@H](C)[C@@H](CN(C)S(=O)(=O)c1cccs1)O2,inactive: 0.987
14,C[C@@H]1CN([C@@H](C)CO)C(=O)c2cc(NC(=O)Cc3ccccc3)ccc2O[C@@H](C)CCCCO[C@@H]1CN(C)C(=O)Cc1ccccc1,inactive: 1.02
15,C[C@@H]1CN([C@H](C)CO)C(=O)Cc2cc(NC(=O)Nc3ccc(C(F)(F)F)cc3)ccc2O[C@H]1CN(C)Cc1ccc(C(=O)Nc2ccccc2N)cc1,inactive: 1.06
16,Cc1ccc(S(=O)(=O)N(C)C[C@@H]2Oc3ccc(NC(=O)c4ccncc4)cc3C(=O)N([C@H](C)CO)C[C@@H]2C)cc1,inactive: 1.02
17,CC(C)NC(=O)N(C)C[C@@H]1Oc2ccc(NS(=O)(=O)c3ccc(Cl)cc3)cc2CC(=O)N([C@H](C)CO)C[C@H]1C,inactive: 1.01
18,C[C@H]1CN([C@@H](C)CO)S(=O)(=O)c2ccc(C#Cc3ccccc3)cc2O[C@@H]1CN(C)C(=O)Cc1ccccn1,inactive: 0.977
19,Cc1noc(C)c1NC(=O)N(C)C[C@H]1OCCCC[C@@H](C)Oc2ccc(NC(=O)Nc3ccc(C(F)(F)F)cc3)cc2C(=O)N([C@@H](C)CO)C[C@H]1C,inactive: 0.981
20,C[C@@H]1CN([C@@H](C)CO)C(=O)c2cc(NC(=O)Cc3ccccc3)ccc2O[C@@H](C)CCCCO[C@@H]1CN(C)S(=O)(=O)c1cccs1,inactive: 1.01

row,Structure (SMILES),relative growth
1,Cc1noc(C)c1NC(=O)Nc1ccc2c(c1)C(=O)N([C@@H](C)CO)C[C@@H](C)[C@H](CN(C)Cc1ccc(C(=O)Nc3ccccc3N)cc1)O2,inactive: 1.05
2,CCCCCCCCCCCCCC(=O)OC(C)C,inactive: 1.04
3,CC(O)(P(=O)(O)O)P(=O)(O)O,inactive: 0.992
4,C[C@H]1CCCCO[C@@H](CN(C)C(=O)C2CCCCC2)[C@@H](C)CN([C@@H](C)CO)C(=O)c2cc(NS(=O)(=O)c3cccs3)ccc2O1,inactive: 0.977
5,C[C@H]1CN([C@@H](C)CO)C(=O)c2cc(NS(=O)(=O)c3cccs3)ccc2O[C@@H]1CN(C)S(=O)(=O)c1ccccc1,inactive: 0.978
6,C[C@@H]1CCCCO[C@@H](CN(C)Cc2ccc3c(c2)OCO3)[C@@H](C)CN([C@H](C)CO)C(=O)c2cc(NC(=O)Nc3cccc4ccccc34)ccc2O1,inactive: 1.07
7,NC(=O)c1ccc[n+](CC(=O)N2CCCCC2)c1,inactive: 1.03
8,Cc1noc(C)c1NC(=O)Nc1ccc2c(c1)C(=O)N([C@H](C)CO)C[C@H](C)[C@@H](CN(C)Cc1ccc3c(c1)OCO3)OCCCC[C@H](C)O2,inactive: 0.993
9,COc1ccc(S(=O)(=O)Nc2ccc3c(c2)[C@@H]2C[C@H](CC(=O)NCC4CC4)O[C@H](CO)[C@@H]2O3)cc1,inactive: 1.02
10,C[C@H](CO)N1C[C@H](C)[C@H](CN(C)S(C)(=O)=O)OCc2cnnn2CCCC1=O,inactive: 1.01
11,O=c1[nH]c(=O)n([C@@H]2O[C@H](CO)[C@@H](O)[C@H]2O)cc1Br,inactive: 0.988
12,CC(C)n1c(-c2ccccc2)cs/c1=N\c1ccccc1,inactive: 0.934
13,C[C@H](CO)N1C[C@H](C)[C@H](CN(C)Cc2ccc(Oc3ccccc3)cc2)Oc2ccc(NC(=O)Cn3cnnn3)cc2CC1=O,inactive: 0.988
14,C[C@H]1CN([C@@H](C)CO)C(=O)c2cc(NS(=O)(=O)c3ccccc3)ccc2O[C@@H]1CN(C)Cc1ccc(Cl)c(Cl)c1,inactive: 0.979
15,COc1ccc(NC(=O)N(C)C[C@H]2OCCCC[C@@H](C)Oc3ccc(NC(=O)Nc4ccc5c(c4)OCO5)cc3C(=O)N([C@@H](C)CO)C[C@H]2C)cc1,inactive: 1.01
16,Cc1ccc(C(C)C)c(O)c1,inactive: 0.967
17,Cc1noc(C)c1S(=O)(=O)Nc1ccc2c(c1)CC(=O)N([C@@H](C)CO)C[C@@H](C)[C@@H](CN(C)Cc1ccc3c(c1)OCO3)O2,inactive: 0.993
18,C[C@@H]1CCCCO[C@@H](CN(C)Cc2ccccc2)[C@H](C)CN([C@H](C)CO)C(=O)c2cc(NC(=O)Nc3ccc(C(F)(F)F)cc3)ccc2O1,inactive: 0.989
19,C[C@@H]1CN([C@H](C)CO)C(=O)c2cc(NC(=O)Nc3ccccc3)ccc2O[C@@H](C)CCCCO[C@@H]1CN(C)S(=O)(=O)c1ccccc1,inactive: 0.987
20,C[C@@H]1CN([C@@H](C)CO)C(=O)Cc2cc(NC(=O)c3ccncc3)ccc2O[C@H]1CN(C)C(=O)Nc1ccc2c(c1)OCO2,inactive: 0.983

row,Structure (SMILES),relative growth
1,C[C@@H]1CN([C@H](C)CO)C(=O)c2cc(C#CCN(C)C)cnc2O[C@@H]1CN(C)C(=O)Nc1cccc(F)c1,inactive: 1.03
2,O=c1ccc(-n2cccn2)n[nH]1,inactive: 1
3,C[C@H](CO)N1C[C@H](C)[C@H](CN(C)Cc2ccc(Cl)c(Cl)c2)OCc2ccccc2-c2ccccc2C1=O,inactive: 0.972
4,O=C(C[C@@H]1C[C@@H]2c3cc(NS(=O)(=O)c4ccc(F)cc4)ccc3O[C@@H]2[C@@H](CO)O1)NCc1ccncc1,inactive: 0.984
5,CCC1NC(=O)c2cc(S(N)(=O)=O)c(Cl)cc2N1 (stereo not given),inactive: 1.13
6,C[C@@H]1CN([C@H](C)CO)C(=O)c2cc(NC(=O)Nc3cccc4ccccc34)ccc2O[C@@H](C)CCCCO[C@@H]1CN(C)Cc1ccc2c(c1)OCO2,inactive: 1.01
7,NC[C@H]1OB(O)c2c(OCCO)ccc(Cl)c21,inactive: 0.982
8,COc1ccccc1C#Cc1ccc2c(c1)O[C@@H](CN(C)C(C)=O)[C@@H](C)CN([C@@H](C)CO)S2(=O)=O,inactive: 1.01
9,COc1ccc(CN(C)C[C@H]2OCCCC[C@@H](C)Oc3ccc(NC(=O)Nc4ccc(OC)cc4)cc3C(=O)N([C@@H](C)CO)C[C@@H]2C)cc1,inactive: 1.01
10,CO[C@H]1O[C@H](CO)[C@@H](OC(=O)Nc2ccccc2-c2ccccc2)[C@H](OC(=O)Nc2ccc3c(c2)OCO3)[C@@H]1OC(=O)Nc1ccc2c(c1)OCO2,inactive: 1.04
11,C[C@H]1CN([C@@H](C)CO)C(=O)c2cc(NS(=O)(=O)c3ccccc3)ccc2O[C@H]1CN(C)CC1CC1,inactive: 1.04
12,CCN(CC)CCNc1ccc(COc2cccc(/C=C(C)/C=C/C(=O)NO)c2)c2sc3ccccc3c(=O)c12,inactive: 0.947
13,C=C(CO)C(=O)O[C@H]1C[C@@]2(C)OC(=O)/C(=C/C)[C@]2(O)CC[C@@]2(C)CC(=O)[C@]1(C(=C)C(=O)OC)O2,inactive: 1.01
14,CCCNC(=O)N(C)C[C@@H]1Oc2cc(-c3ccc(C)cc3)ccc2S(=O)(=O)N([C@H](C)CO)C[C@@H]1C,inactive: 1.02
15,O=C(O)CCN1C(=O)NC2(CCCC2)C1=O,inactive: 0.998
16,COc1cc(O)c(C(=O)O)c(O)c1,inactive: 0.939
17,C[C@@H]1CCCCO[C@H](CN(C)S(=O)(=O)c2cccs2)[C@@H](C)CN([C@H](C)CO)C(=O)c2cc(NC(=O)Nc3ccccc3)ccc2O1,inactive: 0.975
18,C[C@@H]1CCCCO[C@H](CN(C)Cc2ccc3c(c2)OCO3)[C@H](C)CN([C@@H](C)CO)C(=O)c2cc(NS(=O)(=O)c3cccs3)ccc2O1,inactive: 1.01
19,COCCOC(=O)N1C(=O)[C@@]2(c3cc(C#CC4(O)CCCCCC4)ccc31)[C@H](c1ccc(O)cc1)N1[C@H](c3ccccc3)[C@H](c3ccccc3)OC(=O)[C@H]1[C@@H]2C(N)=O,inactive: 1.03
20,C[C@@H]1CCCCO[C@H](CN(C)C(=O)C2CCCCC2)[C@@H](C)CN([C@@H](C)CO)C(=O)c2cc(NC(=O)Cc3ccccc3)ccc2O1,inactive: 0.972
